Experimental data published in PubChem BioAssay AID588453 (National Center for Advancing Translational Sciences (NCATS), 2011).
The campaign covered roughly 390,000 compounds. About 4,000 (1%) were called active. The shares of active, inactive and inconclusive entries below differ from those in the screen. Calls come from the whole dose curve; as a rule, active = well fitted inhibition curve with a large enough effect; inconclusive = small, poorly fitted or top-dose-only effect; inactive = no such curve, though single readings can be large or run the other way. Where the call is inconclusive, the potency comes from a doubtful curve fit.

biological target: Thioredoxin reductase 1, cytoplasmic (Rattus norvegicus) (UniProt O89049); assay: qHTS Assay for Inhibitors of Mammalian Selenoprotein Thioredoxin Reductase 1 (TrxR1): qHTS; details: recombinant rTrxR1, NADPH fluorescence consumption, selenite substrate; series mostly up to 114 µM; note: nearly all actives have a fitted effect of over 65% in size
UniProt O89049, sequence (O89049 whole entry, looked up): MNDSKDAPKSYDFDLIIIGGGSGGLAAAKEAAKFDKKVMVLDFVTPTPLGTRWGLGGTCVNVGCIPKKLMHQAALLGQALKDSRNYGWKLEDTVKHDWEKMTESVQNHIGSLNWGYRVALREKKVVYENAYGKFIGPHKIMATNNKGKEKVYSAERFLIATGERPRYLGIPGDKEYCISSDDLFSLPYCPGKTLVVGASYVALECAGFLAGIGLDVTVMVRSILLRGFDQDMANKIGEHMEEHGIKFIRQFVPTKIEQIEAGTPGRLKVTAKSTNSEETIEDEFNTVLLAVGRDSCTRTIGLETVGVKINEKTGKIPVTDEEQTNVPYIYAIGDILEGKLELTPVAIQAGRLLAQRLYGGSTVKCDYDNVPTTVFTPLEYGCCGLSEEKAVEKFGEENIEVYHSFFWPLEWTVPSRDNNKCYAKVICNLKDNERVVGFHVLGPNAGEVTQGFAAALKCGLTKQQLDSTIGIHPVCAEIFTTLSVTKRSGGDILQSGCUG
Outline: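 Rat TrxR1 (90 nM in the dispensed reagent) was pre-reduced with 400 uM NADPH for 5 min at room temperature, then incubated with compound for 15 min. After 400 uM selenite was added, NADPH fluorescence (Ex 340/Em 450 nm) was followed for 8 min.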
Potency is the fitted concentration of half-maximal effect; tags give direction and shape of the fitted curve.

Row | Compound | Potency
1 | O=C(CSc1nc2ccccc2c(=O)[nH]1)N1CCOCC1 | inactive
2 | N=C1CCC(=N)c2c1c(O)c1ccccc1c2O | inconclusive: 70.8 µM [inhibitor, single point]
3 | Cc1ccc(C2CC(=O)N3CN(Cc4ccco4)CSC3=C2C#N)cc1 (centres undefined) | inconclusive: 14.1 µM [inhibitor, partial curve, poor fit]
4 | CCC(=O)NC(=S)Nc1ccc(N2CCN(C(=O)c3ccc(Cl)cc3)CC2)cc1 | inconclusive: 56.2 µM [inhibitor, partial curve, poor fit]
5 | CN1CCN(CCCNC(=O)Cn2nc(-c3ccccc3)ccc2=O)CC1 | inactive
6 | CCOC(=O)C(C(=O)OCC)C(Nc1cccc(Br)c1)c1ccccc1 (centres undefined) | inconclusive: 56.2 µM [inhibitor, partial curve, poor fit]
7 | OC(CN1CCCC1)Cn1ccc2ccccc21 (centres undefined) | inactive
8 | N#CC1=C(SCC(=O)Nc2ccc(C(=O)O)cc2)NC(=O)CC1c1ccco1 (centres undefined) | inconclusive: 28.2 µM [inhibitor, partial curve]
9 | CC1CCN(C(=O)CSc2nc3ccccc3nc2Cc2ccccc2)CC1 | inactive
10 | COc1cc(NC(=S)Nc2ncccc2C)cc(OC)c1OC | inconclusive: 6.31 µM [inhibitor, partial curve, poor fit]
11 | CC(=O)NC(=S)Nc1ccc(NC(=O)c2cccs2)cc1 | inconclusive: 50.1 µM [inhibitor, partial curve]
12 | C=C(C)C(=O)Nc1cccc(C2=NOC3(C2)C[C@@H](C(N)=O)N(C(=O)/C=C/C=C/C)C3)c1 (some centres undefined) | inconclusive: 56.2 µM [inhibitor, partial curve, poor fit]
13 | CCc1sc(C(=O)NCc2ccco2)cc1C | inconclusive: 25.1 µM [inhibitor, partial curve, poor fit]
14 | Cc1[nH]n(C(N)=S)c(=O)c1N=Nc1cccc(Cl)c1 | inconclusive: 11.2 µM [inhibitor, partial curve, poor fit]
15 | Cc1ccc(-c2nn[nH]n2)o1 | inconclusive: 20 µM [inhibitor, single point]
16 | CCN1/C(=C/C=C/c2oc3ccc4ccccc4c3[n+]2CC)Oc2ccc3ccccc3c21 | inconclusive: 7.08 µM [inhibitor, partial curve]
17 | Cc1ccc(C)c(NC(=O)C2CCN(c3cc(C)nc4c(-c5ccc(Cl)cc5)c(C)nn34)CC2)c1 | inactive
18 | CCN(CC)Cc1c(NC(=O)c2ccccc2)sc(C)c1C | active: 7.08 µM
19 | COc1ccc2c(c1O)-c1ccccc1CCN(C)C2 | inactive
20 | Cc1ccc(-c2csc(NC(=S)NC(=O)/C=C/c3ccco3)n2)cc1 | inconclusive: 79.4 µM [inhibitor, partial curve, poor fit]
21 | CCc1nnc(NS(=O)(=O)c2ccc(NC(=O)Nc3ccc(OC)cc3)cc2)s1 | inactive
22 | Cc1ccc(NC(=O)c2nc[nH]c2C(=O)Nc2ccc(C)cc2)cc1 | inactive

Row | Compound | Potency
23 | COc1ccc(C(=O)N2CCN(c3cccc(C)c3C)CC2)cc1S(=O)(=O)NC1CC1 | inconclusive: 70.8 µM [inhibitor, partial curve]
24 | Cc1ccc(SCC(Cc2ccccc2)N2CCN(CC(C)C)CCC2=O)cc1 (centres undefined) | inconclusive: 28.2 µM [inhibitor, single point]
25 | CCOc1ccccc1N1CCN(C(=O)c2ccccc2)CC1 | inconclusive: 56.2 µM [inhibitor, partial curve, poor fit]
26 | CC[C@@H](C)CN1C(=O)N[C@@H](c2ccccc2)C(C(C)=O)=C1C | inconclusive: 44.7 µM [inhibitor, partial curve]
27 | Cc1ccccc1Nc1c(-c2ccccc2)nc2cccc(C)n12 | inactive
28 | Fc1ccc2nc(Nc3nc4cc5c(cc4s3)OCCO5)sc2c1 | inactive
29 | Cc1cc(CNC(=O)CC2C(=O)NCCN2Cc2ccc(-c3ccccc3)cc2)nn1C (centres undefined) | inconclusive: 50.1 µM [inhibitor, partial curve]
30 | Cc1nc(NCCc2ccc(F)cc2)c(C#N)c(C)c1[N+](=O)[O-] | inconclusive: 89.1 µM [inhibitor, single point]
31 | COCCn1c(C)cc(O)c(C(c2ccc(F)cc2)N2CCN(c3ccccc3)CC2)c1=O (centres undefined) | inconclusive: 10 µM [inhibitor, partial curve]
32 | COc1ccccc1OCCN1CSC(=S)N(C)C1 | inconclusive: 39.8 µM [inhibitor, partial curve, poor fit]
33 | CCNC(=O)c1c(NC(=O)c2nc(S(=O)(=O)CC)ncc2Cl)sc2c1CCCC2 | active: 14.1 µM
34 | O=S(=O)(NCC1CCC(NS(=O)(=O)c2c(F)cccc2F)CC1)c1ccc2c(c1)OCCO2 (centres undefined) | inactive
35 | O=C(c1ccc([N+](=O)[O-])o1)N1CCN(Cc2ccccc2)CC1 | inconclusive: 50.1 µM [inhibitor, partial curve, poor fit]
36 | O=C(O)CC1S/C(=N/N=C/c2ccc(-c3ccc(Cl)cc3[N+](=O)[O-])o2)NC1=O (centres undefined) | inconclusive: 89.1 µM [inhibitor, single point]
37 | CCOC(=O)c1ccc(NC(=O)Cn2ncc(Cl)c(Cl)c2=O)cc1 | inconclusive: 39.8 µM [inhibitor, partial curve]
38 | Cc1ccc(SC2=C(N(C)C)C(=O)c3ccccc3C2=O)cc1 | active: 7.94 µM
39 | COc1ccc(CC(=O)Nc2ccc3nc(N4CCCCC4)cc(C)c3c2)cc1 | inconclusive: 79.4 µM [inhibitor, single point]
40 | Cc1ccc(-c2nn(-c3ccccc3)cc2/C=C/C(=O)O)o1 | inconclusive: 17.8 µM [inhibitor, partial curve, poor fit]
41 | Cc1cc(C(=O)N2CCN(S(=O)(=O)c3ccccc3)CC2)c(C)o1 | inconclusive: 89.1 µM [inhibitor, single point]
42 | CCCN(CCC)S(=O)(=O)c1ccc(C(=O)Nc2nnc(CSC)o2)cc1 | inactive
43 | Cc1ccc2cc(CCl)c(Cl)nc2c1 | active: 44.7 µM
44 | CCOC(=O)C1CCCN(C(=O)/C(=C/c2ccco2)NC(=O)c2ccccc2)C1 (centres undefined) | inconclusive: 15.8 µM [inhibitor, full curve]
